T1: recombinant human 5T4 protein (5T4/His) (UniProt Q13641 32-355)
T1 chain: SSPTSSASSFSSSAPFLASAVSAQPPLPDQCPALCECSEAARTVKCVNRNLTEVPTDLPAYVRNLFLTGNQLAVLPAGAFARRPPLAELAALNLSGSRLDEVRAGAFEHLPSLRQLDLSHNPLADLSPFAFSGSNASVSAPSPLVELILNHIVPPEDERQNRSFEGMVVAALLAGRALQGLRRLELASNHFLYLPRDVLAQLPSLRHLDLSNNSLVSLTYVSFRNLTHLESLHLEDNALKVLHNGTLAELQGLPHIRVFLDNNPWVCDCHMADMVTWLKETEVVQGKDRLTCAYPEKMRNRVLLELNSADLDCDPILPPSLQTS

B1: 53L10 tribody (other)
chain 1: QVQLVQSGAEVKKPGASVKVSCKASGYSFTSYYMHWVKQSPGQGLEWIGRINPNNGVTLYNQKFKDRVTMTRDTSISTAYMELSRLRSDDTAVYYCARSTMITNYVMDYWGQGTLVTVSSASTKGPSVFPLAPSSKSTSGGTAALGCLVKDYFPEPVTVSWNSGALTSGVHTFPAVLQSSGLYSLSSVVTVPSSSLGTQTYICNVNHKPSNTKVDKKVEPKSCDKTHTGPGGGSPGQVQLVQSGAELKKPGASVKVSCKASGYTFTRYTMHWVRQAPGQCLEWMGYINPSRGYTNYNQKFKDKATLTADKSTSTAYMELRSLRSDDTAVYYCARYYDDHYSLDYWGQGTLVTVSSASGGGGSGGGGSGGGGSAGDIQLTQSPSILSASVGDRVTITCRASSSVSYMNWYQQKPGKAPKRWIYDTSKVASGVPYRFSGSGSGTEYTLTISSMQPEDFATYYCQQWSSNPLTFGCGTKVEIKSG
chain 2: DIVMTQSPDSLAVSLGERATINCKASQSVSNDVAWYQQKPGQPPKLLIYYTSSRYAGVPDRFSGSGSGTDFTLTISSLQAEDVAVYYCQQDYNSPPTFGGGTKLEIKRTVAAPSVFIFPPSDEQLKSGTASVVCLLNNFYPREAKVQWKVDNALQSGNSQESVTEQDSKDSTYSLSSTLTLSKADYEKHKVYACEVTHQGLSSPVTKSFNRGECGPGGGSPG[about 100 residues not given here]SKWELVDPYGNWGQGTMVTVSSGGGGSGGGGSGGGGSNFMLTQPHSVSESPGKTITISCTRSSGSIAGNYVQWYQQRPGSAPIIVIYEDNQRPSGVPDRFSGSIDSSSNSASLTISRLKTEDEADYYCQSYEASNVVFGGGTKLTVLSG
B2: 53L1 tribody (other)
chain 1: B1 chain 1
chain 2: DIVMTQSPDSLAVSLGERATINCKASQSVSNDVAWYQQKPGQPPKLLIYYTSSRYAGVPDRFSGSGSGTDFTLTISSLQAEDVAVYYCQQDYNSPPTFGGGTKLEIKRTVAAPSVFIFPPSDEQLKSGTASVVCLLNNFYPREAKVQWKVDNALQSGNSQESVTEQDSKDSTYSLSSTLTLSKADYEKHKVYACEVTHQGLSSPVTKSFNRGECGPGGGSPG[about 100 residues not given here]TKWELVDPYDYWGQGTMVTVSSGGGGSGGGGSGGGGSNFMLTQPHSVSESPGKTITISCTRSSGSIAGNYVQWYQQRPGSAPIIVIYEDNQRPSGVPDRFSGSIDSSSNSASLTISRLKTEDEADYYCQSYEASNVVFGGGTKLTVLSG

Target: T1, recombinant human 5T4 protein (5T4/His)
Assay: ELISA

Row | Binder | EC50 [nM]
1 | B1 | 0.75
2 | B2 | 0.75
